In PubChem BioAssay AID1345083 (National Center for Advancing Translational Sciences (NCATS), 2018):
Screen size: about 94,000 compounds; about 6,200 (6.6%) were called active. This list was built around the results that the source calls inconclusive (neither active nor inactive); the mix of calls is not that of the screen. Calls follow the shape of the dose curve; as a rule, active = well fitted inhibition curve with a large enough effect; inconclusive = small, poorly fitted or top-dose-only effect; inactive = flat fitted curve, though single readings scatter. Where the call is inconclusive, the potency comes from a doubtful curve fit.

Test: Cytotoxic Profiling in HEK 293 Cell Line of Diverse Libraries Using Quantitative High-Throughput Screening; also: nearly all actives have a fitted effect of over 60% in size
Conditions: HEK 293 viability, ATP luminescence (CellTiter-Glo), 48-72 h; series mostly up to 115 µM
Method in brief: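 Cells seeded first (HEK 293, 250 cells/well), then compound added by pintool. Incubation ran 48 or 72 hr at 37 degree Celsius. CellTiter-Glo was added and luminescence imaged after 10 min at room temperature.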
Potency is read from the fitted curve at half-maximal effect; tags tell the direction and shape of the fitted curve.

Row | Structure (SMILES) | Potency
1 | COc1cccc(CN2CCCC(O)(CN3CCSCC3)C2=O)c1 (configuration not stated) | inactive
2 | Cc1ccccc1CCN1CCC(CN(C(=O)c2ccoc2C)C2CCCC2)CC1 | inconclusive: 50.1 µM [inhibitor, partial curve, poor fit]
3 | COc1ccc(C(=O)N2C[C@@H](F)[C@@H](OCc3nc4ccccc4o3)C2)cc1 | active: 100 µM
4 | CCOC(=O)C1(Cc2ccccc2C)CCCN(Cc2cnc(C)s2)C1 (configuration not stated) | inconclusive: 56.2 µM [inhibitor, partial curve, poor fit]
5 | COCc1nc(CCNC(=O)CCc2nc(-c3cccc(C)c3)no2)no1 | inactive
6 | Cc1ccc(-c2cccc(CN3CCCC3C(=O)NCC(F)(F)F)c2)cc1Cl (configuration not stated) | active: 31.6 µM
7 | COc1ccccc1CN1CCNc2cnc(Oc3ccccc3)cc2C1 | inconclusive: 89.1 µM [inhibitor, partial curve, poor fit]
8 | COc1ccc(C(=O)N2C[C@@H]3C[C@H](C2)c2c(/C=C/c4ccc(Cl)cc4)ccc(=O)n2C3)cc1 | inconclusive: 89.1 µM [inhibitor, single point]
9 | CC(=O)NCCc1ncc(C)n1C1CCCCCC1 | inactive
10 | CNC(=O)[C@@H]1C[C@H](Oc2ccccc2)CN1C(=O)c1cc(-c2ccc(C)cc2)n[nH]1 | inconclusive: 79.4 µM [inhibitor, partial curve, poor fit]
11 | COCc1cc(CC2(NCc3ccc(C(F)(F)F)cc3)COC2)no1 | inactive
12 | CC(C)(Oc1nn(Cc2cccc(Cl)c2)c2ccccc12)C(=O)NC1CC1 | inconclusive: 63.1 µM [inhibitor, partial curve, poor fit]
13 | O=C(CCNC(=O)c1cnccn1)NC1CCCc2c1[nH]c1ccccc21 (configuration not stated) | inactive
14 | CN(C)c1nccnc1OC1CCN(C(=O)CC2CCCC2)C1 (configuration not stated) | inconclusive: 56.2 µM [inhibitor, partial curve, poor fit]
15 | CNC(=O)[C@@H]1CCCN1c1nccc(Nc2ccccc2OC)n1 | inactive
16 | CNC(=O)c1ccc2nc(-c3cccnc3Cl)oc2c1 | inactive
17 | C=CCNC(=O)CCc1c(C)nn(-c2ccc(F)cc2)c1Oc1ccccc1 | inconclusive: 50.1 µM [inhibitor, partial curve, poor fit]
18 | C#CCNC(=O)C1CCCN(Cc2cccc(-c3ccsc3)c2)C1 (configuration not stated) | inconclusive: 56.2 µM [inhibitor, partial curve, poor fit]
19 | COc1ccc(-c2nc(-c3c(C)noc3C)cc3cc(CN(C)C)oc23)cn1 | inconclusive: 100 µM [inhibitor, partial curve, poor fit]
20 | Cn1cnc(S(=O)(=O)N2CCOCCNC(=O)[C@@H]3CCC[C@@H]32)c1 | inactive
21 | CCc1ccc(C(=O)Nc2ccc(-c3nnc4n3CCCC4)cc2)cc1 | inactive
22 | O=C(Cn1ccn2nc(-c3ccc(F)cc3)c(CO)c2c1=O)Nc1cccc(Br)c1 | active: 44.7 µM
23 | COc1cccc(-c2ccc(C(=O)N3CCC(C(=O)NCc4cccc(Cl)c4)CC3)cc2)c1 | inconclusive: 44.7 µM [inhibitor, partial curve, poor fit]

Row | Structure (SMILES) | Potency
24 | CC(C)c1noc(-c2cn(C3CCCN(C(=O)c4ccc(F)c(F)c4)C3)nn2)n1 (configuration not stated) | inconclusive: 79.4 µM [inhibitor, single point]
25 | CC(=O)N1CCC(CC(=O)N2CC(c3nc(CCOc4cccc(C)c4)no3)C2)CC1 | inconclusive: 56.2 µM [inhibitor, partial curve, poor fit]
26 | NC(=O)c1cccc(CN2CCCC3(Cc4ccccc4N(C(=O)c4ccc(Cl)cc4)C3)C2)c1 (configuration not stated) | inconclusive: 50.1 µM [inhibitor, partial curve, poor fit]
27 | COc1ccc(NC(=O)N2CCC3(CC2)CC(N(C(C)=O)C2CC2)CCO3)cc1 (configuration not stated) | inactive
28 | COc1ccc(CN2CCc3nc(N4CCN(C)CC4)[nH]c(=O)c3CC2)cc1OC | inactive
29 | O=C(c1cc2n(n1)CC(c1ccc(Cl)cc1)OC2)N1CCN(c2ccc(F)cc2)CC1 (configuration not stated) | active: 39.8 µM
30 | Cc1nn(C)c2ncnc(N3CCCC(Cc4nc5ccccc5[nH]4)C3)c12 (configuration not stated) | inconclusive: 56.2 µM [inhibitor, partial curve, poor fit]
31 | CCc1ccccc1NC(=O)N1C[C@@H](F)C[C@H]1C(=O)N1CCCCC1 | inactive
32 | O=C(CCC1CCCC1)NCCc1noc(-c2ccccc2)n1 | active: 79.4 µM
33 | CCOC(=O)c1cn(C2CN(S(=O)(=O)c3ccc(C)c(C)c3)C2)nn1 | inconclusive: 50.1 µM [inhibitor, partial curve, poor fit]
34 | Cn1ncc2c(C(=O)NC3CCCCCC3)cc(C(C)(C)C)nc21 | active: 35.5 µM
35 | CNC(=O)c1ccc2c(c1)n(Cc1ccc(OC)cc1)c(=O)c1ccnn12 | inconclusive: 50.1 µM [inhibitor, partial curve, poor fit]
36 | COc1ccc(-c2nccc3c(=O)cc(N4CCOCC4)oc23)cc1OC | inconclusive: 100 µM [inhibitor, partial curve, poor fit]
37 | COc1cccc(C(=O)N2CCC(Cc3nc(C(C)C)no3)CC2)c1 | inconclusive: 50.1 µM [inhibitor, partial curve, poor fit]
38 | O=C1NC2(Cc3ccccc31)CN([S+](=O)([O-])c1cccc(C(F)(F)F)c1)C2 | inactive
39 | O=C(Nc1cccc(F)c1)N1CC(Oc2ccc(-c3noc(C4CCOCC4)n3)cc2)C1 | inconclusive: 39.8 µM [inhibitor, full curve, poor fit]
40 | Cc1nn2c(c1-c1ccccc1[S+](C)(=O)[O-])N(Cc1ccccc1)CCC2 | inconclusive: 100 µM [inhibitor, partial curve, poor fit]
41 | COc1cccc(CN2CCCC3(CCN(C(=O)c4ccc(OC)nc4OC)C3)C2)c1 (configuration not stated) | inconclusive: 50.1 µM [inhibitor, partial curve, poor fit]
42 | O=C(Cn1c(=O)oc2ccccc21)NCC12CCCC=C1NC(=O)CC2 (configuration not stated) | inactive
43 | COc1cccc(CNC(=O)CNC(=O)c2cccc(-c3ccc(SC)cc3)c2)c1 | active: 22.4 µM
44 | CCc1noc(-c2cccc(-n3ccnc3-c3cc4n(n3)CCCNC4)c2)n1 | inactive
45 | FC(F)(F)c1ccccc1CN1CCC2(CC1)CC(c1ccccc1)=NO2 | inconclusive: 56.2 µM [inhibitor, partial curve, poor fit]
46 | Cc1nnc(-c2cc(-c3cccc(O)c3)ccn2)n1-c1ccccc1 | inconclusive: 89.1 µM [inhibitor, partial curve]

Row | Structure (SMILES) | Potency
47 | Cc1nnc2ccc(N3CCC(NC(=O)c4cccc(Cl)c4)C3)nn12 (configuration not stated) | inactive
48 | O=C(C[C@@H]1C[C@H]2O[C@H](CNC3CCOCC3)[C@@H](O)[C@H]2O1)N1CCOCC1 | inactive
49 | O=C(NCCC1=CCCCC1)C1CCN(C(=O)c2ncn3c2COC(c2ccc(F)cc2)C3)CC1 (configuration not stated) | inactive
50 | COC(=O)c1ccc(NC(=O)N2CC3CN(C(C)C)CC(C2)O3)cc1 | inactive
51 | CCCc1nc(C(=O)NCC(C)Cn2nc(C)cc2C(F)(F)F)cs1 (configuration not stated) | inconclusive: 56.2 µM [inhibitor, partial curve, poor fit]
52 | O=C(NCc1cccs1)c1ccc2nnc(-c3cccc(C(F)(F)F)c3)n2c1 | inconclusive: 39.8 µM [inhibitor, full curve, poor fit]
53 | Cc1nn(CC(=O)N2CCN(c3ccc(Cl)cc3)CC2)c(=O)c2nc(C(C)C)sc12 | inconclusive: 50.1 µM [inhibitor, partial curve, poor fit]
54 | O=C(NC1CCCN(Cc2ccc(-c3cncnc3)cc2)C1)c1ccccn1 (configuration not stated) | inconclusive: 89.1 µM [inhibitor, single point]
55 | COCC(=O)N[C@H]1C[C@@H](Cc2cc(CN(C)c3ccccc3)on2)C1(C)C | active: 44.7 µM
56 | COCCCNC(=O)CNC(=O)c1ccc(-c2cccc(C(F)(F)F)c2)cc1 | inconclusive: 7.94 µM [inhibitor, full curve, poor fit]
57 | CCN1C(=O)CCc2cc(NC(=O)c3cncc(Br)c3)ccc21 | inconclusive: 79.4 µM [inhibitor, partial curve, poor fit]
58 | COc1cccc(CNC(=O)c2cc(-c3ccccc3)nc3c2cnn3C)c1 | inconclusive: 79.4 µM [inhibitor, partial curve]
59 | COc1cc(CN2CCN(c3cc(C)nc(N)n3)CC2CCO)cc(OC)c1 (configuration not stated) | inactive
60 | CC(C)N1C(=O)C2(CCCC2)C1C(=O)NCCCN1CCc2ccccc2C1 (configuration not stated) | inactive
61 | Cc1ccccc1OCc1nc(C2CN(C(=O)Cc3c[nH]c4ccccc34)C2)no1 | inconclusive: 50.1 µM [inhibitor, partial curve, poor fit]
62 | COc1cccc(CN2CCCCC2c2nc(CCOCC3CCOCC3)no2)c1 (configuration not stated) | inconclusive: 56.2 µM [inhibitor, partial curve, poor fit]
63 | CNC(=O)CNC(=O)N1CCC(=O)N(C)c2ccccc2C(OC)C1 (configuration not stated) | inactive
64 | COc1ccccc1CNC(=O)C[C@@H]1c2nc(-c3cccnc3)sc2C[C@@H]2[C@](C)(CO)[C@H](O)CC[C@]21C | inconclusive: 50.1 µM [inhibitor, partial curve, poor fit]
65 | COCc1ncc(CN2CC[C@@H](c3ccc4ccccc4c3)[C@H](O)C2)cn1 | inactive
66 | Cc1ccc2nc(CO[C@H]3CN(C4CCN(C)CC4)C[C@H]3F)[nH]c2c1 | inconclusive: 126 µM [inhibitor, partial curve, poor fit]
67 | COCCNc1cc(-c2ccc3ccccc3n2)c2cc[nH]c2n1 | inconclusive: 56.2 µM [inhibitor, partial curve, poor fit]
